# Source: the supplement of paper PMC4604168 (melanoma cell lines)
# The list shows a part of the results. Many values rest on one well or one pass, so single values are uncertain.
# Tests used:
# Experiment in all cases: cell count relative to DMSO control; melanoma cells; higher = more viable cells
# Settings in all cases: library dose: standard library concentration; 72 h; first compound 2 µM
# G361 = system: G361
# IPC-298 = system: IPC-298
# IST-MEL1 = system: IST-MEL1
# LB2518-MEL = system: LB2518-MEL
# LOXIMVI = system: LOXIMVI
# MEL-HO = system: MEL-HO
# MZ2-MEL = system: MZ2-MEL
# MeWo = system: MeWo
# RPMI7951 = system: RPMI7951
# RVH-421 = system: RVH-421
# SkMel28 = system: SkMel28
# SkMel2 = system: SkMel2
# SkMel30 = system: SkMel30
# SkMel5 = system: SkMel5
# UACC257 = system: UACC257
# UACC62 = system: UACC62
# WM115 = system: WM115
# WM1716 = system: WM1716
# WM3526 = system: WM3526
# WM1745 = system: WM1745
# 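Further: cells treated in 1,536-well plates, then fixed and DAPI-stained, with nuclei counted from automated high-throughput microscope images.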
SMILES,cell count (G361),cell count (IPC-298),cell count (IST-MEL1),cell count (LB2518-MEL),cell count (LOXIMVI),cell count (MEL-HO),cell count (MZ2-MEL),cell count (MeWo),cell count (RPMI7951),cell count (RVH-421),cell count (SkMel28),cell count (SkMel2),cell count (SkMel30),cell count (SkMel5),cell count (UACC257),cell count (UACC62),cell count (WM115),cell count (WM1716),cell count (WM3526),cell count (WM1745)
CCCCCCCCCCCCCCCCCCOP(=O)([O-])OC1CC[N+](C)(C)CC1 [Perifosine] + O=C1NC(=O)/C(=C/c2ccc(-c3ccc(F)cc3O)o2)S1 [AS252424] (partner dose 5 µM),85.3%,81.8%,102%,95.6%,110%,83.9%,80.5%,96.7%,59.8%,121%,100%,84.9%,90.9%,90.7%,96.8%,79.1%,92.4%,96.8%,70.9%,
CCCCCCCCCCCCCCCCCCOP(=O)([O-])OC1CC[N+](C)(C)CC1 [Perifosine] + O=c1cc(-c2cccc3c2Sc2ccccc2S3)oc(N2CCOCC2)c1 [KU55933] (partner dose 5 µM),74%,87.5%,92.4%,88.5%,103%,67.1%,96.1%,92%,20%,98.7%,69.3%,95.5%,81.2%,97.6%,92.8%,89.6%,93.7%,87.8%,86.9%,
CCCCCCCCCCCCCCCCCCOP(=O)([O-])OC1CC[N+](C)(C)CC1 [Perifosine] + O=S(=O)(c1ccccc1)N(CC(F)(F)F)c1ccc(C(O)(C(F)(F)F)C(F)(F)F)cc1 [T0901317] (partner dose 7 µM),77.7%,80.3%,74.8%,77.9%,88.2%,72.6%,94.3%,82.5%,45.8%,80.6%,67.4%,80.4%,90.4%,62.6%,67.5%,52.2%,74.7%,79.8%,90.4%,
Cn1sc(=O)n(Cc2ccccc2)c1=O + O=c1cc(-c2cccc3c2Sc2ccccc2S3)oc(N2CCOCC2)c1 [KU55933] (partner dose 5 µM),91.9%,108%,99.3%,103%,62.7%,92.6%,100%,86.3%,80.6%,96.6%,61.8%,85.1%,98.9%,95.4%,110%,54.8%,95.9%,98.4%,80.1%,
C[C@@H](N)c1ccc(C(=O)Nc2ccnc3[nH]ccc23)cc1 + COc1ccc2c(c1)CCC1C2CCC2(C)C(NCCCCCCN3C(=O)C=CC3=O)CCC12 [U73122] (partner dose 2 µM),57.4%,90%,78.5%,63.1%,53.3%,75.7%,64.6%,30.1%,25%,47.7%,95.3%,92.1%,90.2%,42.7%,69.5%,57.8%,79.4%,46.9%,79.7%,
Cn1sc(=O)n(Cc2ccccc2)c1=O + O=C(O)C(=O)Nc1sc2c(c1C(=O)O)CCNC2 [TCS401] (partner dose 8.33333 µM),93.2%,96%,102%,92%,81.2%,84.7%,94.3%,87.6%,85.4%,38.7%,102%,96%,100%,72.3%,79.3%,66.7%,80%,85.5%,80.9%,
CCCCCCCCCCCCCCCCCCOP(=O)([O-])OC1CC[N+](C)(C)CC1 [Perifosine] + CCN(CC)CCCCNc1ncc2cc(-c3cc(OC)cc(OC)c3)c(NC(=O)NC(C)(C)C)nc2n1 [PD173074] (partner dose 0.5 µM),98.7%,115%,108%,112%,91.5%,102%,108%,89.7%,45.8%,102%,99.3%,98.9%,121%,90.2%,104%,98.5%,115%,94.5%,105%,
C[C@@H](N)c1ccc(C(=O)Nc2ccnc3[nH]ccc23)cc1 + Cn1cc(/C=C2\C(=O)Nc3cccnc32)c2ccccc21 [GW441756] (partner dose 2 µM),77.2%,77.7%,80.8%,111%,91.7%,70.9%,43.3%,63%,64.4%,53.2%,73.4%,93.9%,71%,42.4%,38.2%,73.7%,101%,27.8%,76.9%,
Cn1sc(=O)n(Cc2ccccc2)c1=O + c1cc(-c2cnn3cc(-c4ccc(OCCN5CCCCC5)cc4)cnc23)ccn1 [Dorsomorphin] (partner dose 2 µM),72.5%,79.2%,90.9%,59.7%,84.8%,80.8%,84.4%,62.6%,54.3%,103%,57.4%,98.2%,93%,61.7%,78.3%,58.3%,61.1%,71.5%,88.4%,
C[C@@H](N)c1ccc(C(=O)Nc2ccnc3[nH]ccc23)cc1 + COc1ccc(-c2ccc3c(N4CCOCC4)nc(N4C[C@@H](C)O[C@@H](C)C4)nc3n2)cc1CO [KU0063794] (partner dose 0.1 µM),88.5%,88.7%,98.9%,97.2%,86.1%,66.4%,54.9%,46.1%,54.6%,49.4%,77.2%,107%,87.1%,66.1%,54.5%,63.1%,103%,57.1%,82.3%,
Cn1sc(=O)n(Cc2ccccc2)c1=O + COc1cc2ncnc(Nc3ccc(Oc4ccccc4)cc3)c2cc1OC [SrcI1] (partner dose 10 µM),55.9%,74.2%,91%,114%,69.9%,69%,60%,65.4%,35.4%,92.8%,56.5%,67.9%,73.3%,71.1%,94.6%,60.8%,78.6%,76.3%,55.2%,
Cn1sc(=O)n(Cc2ccccc2)c1=O + CC(C)CCN1c2nc(Nc3cc(F)c(O)c(F)c3)ncc2N(C)C(=O)C1C [BID1870] (partner dose 1 µM),61.1%,75.6%,81.5%,78.3%,97.6%,65.2%,88.2%,63.7%,80.7%,71.8%,51.5%,79.5%,74.1%,73.3%,80.9%,67.8%,90.2%,98.4%,72.2%,
C[C@@H](N)c1ccc(C(=O)Nc2ccnc3[nH]ccc23)cc1 + O=c1cc(-c2cccc3c2Sc2ccccc2S3)oc(N2CCOCC2)c1 [KU55933] (partner dose 5 µM),54.1%,78.6%,85.2%,85.6%,92.8%,66.3%,51.5%,69%,60.3%,71.8%,105%,104%,102%,76.9%,65.9%,89.5%,88.8%,39.9%,79.3%,
C[C@@H](N)c1ccc(C(=O)Nc2ccnc3[nH]ccc23)cc1 + C[C@]1(c2nc3c(C(N)=O)cccc3[nH]2)CCCN1 [Veliparib] (partner dose 7 µM),92.2%,104%,84.6%,88.9%,116%,74.9%,51.3%,67.3%,57.4%,87%,69%,89.6%,82.4%,68.1%,61.6%,63.6%,87.6%,50.3%,83.5%,66.3%
CCCCCCCCCCCCCCCCCCOP(=O)([O-])OC1CC[N+](C)(C)CC1 [Perifosine] + CC(C)CCN1c2nc(Nc3cc(F)c(O)c(F)c3)ncc2N(C)C(=O)C1C [BID1870] (partner dose 1 µM),71.5%,72.6%,84.1%,111%,92.6%,77.6%,111%,79.3%,61.1%,87.5%,52.5%,82.7%,66.2%,80.3%,101%,77.5%,106%,108%,75.7%,
C[C@@H](N)c1ccc(C(=O)Nc2ccnc3[nH]ccc23)cc1 + COc1ccc(C2=N[C@@H](c3ccc(Cl)cc3)[C@@H](c3ccc(Cl)cc3)N2C(=O)N2CCNC(=O)C2)c(OC(C)C)c1 [Nutlin-3] (partner dose 0.5 µM),69.1%,103%,83.4%,109%,68.9%,57.1%,57.1%,83.3%,65.9%,53.6%,59%,100%,102%,56%,55.3%,47.6%,97.9%,48.7%,107%,38.4%
Cn1sc(=O)n(Cc2ccccc2)c1=O + COc1ccc2c(c1)CCC1C2CCC2(C)C(NCCCCCCN3C(=O)C=CC3=O)CCC12 [U73122] (partner dose 2 µM),81.6%,98.6%,82.3%,98.4%,81.5%,99.2%,88.9%,63.3%,27%,31.3%,57.5%,92.7%,76.1%,82.9%,86.5%,37.2%,67.3%,51.8%,71.8%,
C[C@@H](N)c1ccc(C(=O)Nc2ccnc3[nH]ccc23)cc1 + O=C(Nc1ccccc1)c1cc([N+](=O)[O-])ccc1Cl [GW9662] (partner dose 10 µM),76.6%,116%,118%,126%,77.8%,88.8%,63.7%,63.3%,71.8%,78.9%,95.4%,134%,94.9%,96%,70.4%,75.6%,89.7%,73.8%,123%,
C[C@@H](N)c1ccc(C(=O)Nc2ccnc3[nH]ccc23)cc1 + CCN(CC)CCCCNc1ncc2cc(-c3cc(OC)cc(OC)c3)c(NC(=O)NC(C)(C)C)nc2n1 [PD173074] (partner dose 0.5 µM),87.5%,90.6%,84%,126%,75.8%,72.3%,50.8%,64.8%,51.6%,50.6%,65.1%,96.6%,113%,52.7%,57.2%,67.6%,98.2%,73%,97%,
C[C@@H](N)c1ccc(C(=O)Nc2ccnc3[nH]ccc23)cc1 + O=C(O)C(=O)Nc1sc2c(c1C(=O)O)CCNC2 [TCS401] (partner dose 8.33333 µM),106%,90.2%,109%,130%,83.6%,87.6%,60%,88.4%,75.1%,90.2%,113%,104%,83.9%,53.7%,41.2%,93.3%,100%,83.3%,93.1%,
